# Assay results from PubChem BioAssay AID488969 (Vanderbilt High Throughput Screening Facility, 2010).
# Whole data set: some 110,000 compounds, median “z-score” near -0.1, cut for the highest 2% near 2. Some of the results follow. Calls of active or inactive are those of the source.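 The calls were made as follows: active = z-score in the third read window above 3 or below -3; inactive = the rest.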
# Molecular target: Metabotropic glutamate receptor 8 (Rattus norvegicus) (UniProt P70579)
# Experiment: mGluR8 Gi/Go-coupled signaling modulation – cell-based, rat, thallium flux, HTS, primary screen (AID 488969)
# Conditions: HEK293 rat mGluR8, GIRK (G protein-gated inwardly rectifying potassium channel) thallium flux, FluoZin2; at 10 µM; stronger effect = higher value; submaximal glutamate (EC20) added with thallium
# Chain of UniProt P70579 (P70579 whole entry, looked up): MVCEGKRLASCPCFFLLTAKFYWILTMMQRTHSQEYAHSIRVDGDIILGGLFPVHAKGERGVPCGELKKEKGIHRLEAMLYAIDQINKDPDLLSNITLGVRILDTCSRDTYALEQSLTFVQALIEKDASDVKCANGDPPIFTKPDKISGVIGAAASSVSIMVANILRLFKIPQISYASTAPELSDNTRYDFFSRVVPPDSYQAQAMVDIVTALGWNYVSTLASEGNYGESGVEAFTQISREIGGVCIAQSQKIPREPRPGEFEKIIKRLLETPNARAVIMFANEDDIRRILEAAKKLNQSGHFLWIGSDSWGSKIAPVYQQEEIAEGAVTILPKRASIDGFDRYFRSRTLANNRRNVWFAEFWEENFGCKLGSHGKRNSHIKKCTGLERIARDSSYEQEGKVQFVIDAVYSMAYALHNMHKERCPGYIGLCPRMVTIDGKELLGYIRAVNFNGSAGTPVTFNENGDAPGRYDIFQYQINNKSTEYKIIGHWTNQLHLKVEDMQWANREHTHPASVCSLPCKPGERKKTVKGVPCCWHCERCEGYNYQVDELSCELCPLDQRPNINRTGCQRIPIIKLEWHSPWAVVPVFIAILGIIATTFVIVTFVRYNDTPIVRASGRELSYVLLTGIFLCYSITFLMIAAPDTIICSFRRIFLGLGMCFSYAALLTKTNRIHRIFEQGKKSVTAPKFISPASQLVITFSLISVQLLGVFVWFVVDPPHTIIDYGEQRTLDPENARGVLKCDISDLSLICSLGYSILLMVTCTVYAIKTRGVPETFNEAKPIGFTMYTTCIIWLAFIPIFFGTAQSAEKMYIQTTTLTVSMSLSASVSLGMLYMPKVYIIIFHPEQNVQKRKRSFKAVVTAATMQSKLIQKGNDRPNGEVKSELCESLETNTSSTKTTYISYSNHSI
row,SMILES,z-score
1,CCN(CC)C(=O)C(=O)c1c(-c2ccccc2)[nH]c2ccccc12,-0.211
2,Cc1ccc(S(=O)(=O)N(C)CC(=O)Nc2cccc(C)n2)cc1,0.392
3,O=C(c1ccc(F)cc1)c1c[nH]c(C(=O)NCCCN2CCOCC2)c1,0.142
4,CCOC(=O)C1=C(c2ccccc2)Nc2ncnn2C1c1cccc(OC)c1OC (stereo not given),-0.232
5,CCN(CC)C(=O)CSc1nnc(-c2cccnc2)n1Cc1ccccc1,-0.0129
6,COc1cc2c(cc1OC)C(C1C(=O)CCCC1=O)N(C(=O)CCl)CC2 (stereo not given),-0.173
7,CCCCNC(=O)C1CCCN(S(=O)(=O)c2ccc(S(=O)(=O)NCC(C)C)cc2)C1 (stereo not given),-0.165
8,COc1ccc(OCCSc2nnc(-c3ccc(OC)cc3)n2N)cc1,-0.364
9,CCCCNC(=O)CCCCC(=O)N/N=C/c1ccccc1Cl,-0.127
10,O=C(C[n+]1cccc(CNC(=O)c2ccc(OC(F)F)cc2)c1)Nc1cc(C(F)(F)F)ccc1Cl,-0.68
11,Cc1cc(C(=O)COc2cccc(-n3cnnn3)c2)c(C)n1-c1ccccc1,-1.56
12,COc1ccc(N=C(N)N=C(N)N)c(OC)c1,-0.0657
13,Cc1cc(C)n2nc(C(=O)NC(C)(C)C)nc2n1,-0.0603
14,CN(C)c1ccc(C(=O)OCc2ccccc2)cc1,0.372
15,COc1ccc(CCN(C(=O)c2cccc(F)c2)C2CC(=O)N(c3ccc(OC)cc3)C2=O)cc1 (stereo not given),-0.0429
16,N#CCc1nn(-c2ccc(Cl)cc2)c(N)c1C#N,-0.378
17,O=C(O)C1CCCCC1C(=O)Nc1ccc(F)cc1F (stereo not given),-0.157
18,Cc1[nH]c(=O)[nH]c(=O)c1S(=O)(=O)Nc1ccc(Oc2ccccc2)cc1,-0.0615
19,O=C(N/N=C1\C2CN3CCN(C2)CC1(c1ccccc1)C3)c1ccc(F)cc1,-0.329
20,O=C(Nc1ccc2c(c1)OCO2)C1CCN(S(=O)(=O)c2ccc3c(c2)OCCO3)CC1,-0.0825
21,CCn1c(NCc2ccc(N(C)C)cc2)nc2ccccc21,-0.103
22,COc1ccc(NC(C)=O)cc1NC(=O)CN1CCN(S(=O)(=O)c2ccc(C(C)C)cc2)CC1,0.094

row,SMILES,z-score
1,CC(C(=O)NCc1ccc2c(c1)OCO2)N1c2cccc3cccc(c23)S1(=O)=O (stereo not given),-0.249
2,NS(=O)(=O)c1ccc(CNC(=O)c2ccc(Cl)cc2[N+](=O)[O-])cc1,-0.132
3,CC(=O)Nc1ccc(S(=O)(=O)N2CCCN(S(=O)(=O)c3ccc(NC(C)=O)cc3)CC2)cc1,0.937
4,CCCc1cc(C(=O)Nc2c(C)n(C)n(-c3ccccc3)c2=O)no1,0.151
5,O=[N+]([O-])c1ccc(Cl)c(C2Nc3cccc4cccc(c34)N2)c1,-0.134
6,COc1ccc(-c2nc(C)sc2CC(=O)O)cc1,-0.33
7,Cn1c(=O)c2c(nc(NCc3ccccc3)n2CC(=O)NCc2ccccc2)n(C)c1=O,-0.514
8,CC(=O)Nc1ccc(NS(C)(=O)=O)cc1,-0.402
9,CCCCOc1ccc(CSc2n[nH]c(C)n2)cc1,0.148
10,Cc1cccc(-c2nc(CS(=O)CC(=O)N3CCc4ccccc4C3)c(C)o2)c1 (stereo not given),-0.163
11,O=C(N/N=C\c1cc(Br)cs1)C1COc2ccccc2O1 (stereo not given),2.32
12,COc1ccc(CCCNC(=O)CC#N)cc1OC,0.881
13,CCCCN(C)C(=O)c1cc2cc3ccc(OC)cc3nc2s1,-0.706
14,O=C(Cn1cncn1)NCc1ccccc1Br,-0.0211
15,O=C(CSc1nc2ccccc2o1)Nc1ccc(N2CCOCC2)c(Cl)c1,-0.431
16,O=C(Nc1ncc(Cc2ccccc2Cl)s1)C1=NCCN1,0.0654
17,Cc1ccccc1C(=O)NCCSc1ccccc1,-0.203
18,COc1ccc(NC(=O)C(c2ccccc2)N(C)C(=O)CNC(C)=O)cc1 (stereo not given),0.296
19,Cc1ccc(NC(=S)c2nc3ccccc3[nH]2)c(C)c1,active: 6.64
20,Cc1[nH]c2ccc(CNS(=O)(=O)c3ccc(S(=O)(=O)N4CCOCC4)cc3)cc2c1C,-0.355
21,O=C1CCCN1CCCNc1ncnc2c1[nH]c1ccc(Cl)cc12,1.76
22,C/C(=N\Nc1nc(-c2ccc(C)cc2C)cs1)c1cc2ccccc2oc1=O,0.187

row,SMILES,z-score
1,Cc1ccoc1C(=O)Nc1ccc(CC(=O)O)cc1,0.152
2,CCSc1nnc(-c2cccnc2)n1-c1ccc(C)c(Cl)c1,-0.232
3,COC(=O)CSc1nnc(-c2ccc(S(=O)(=O)NCc3cccs3)cc2)o1,-1.93
4,Cc1ccc(C)c(N(CC(=O)NN=C2CCN(C)CC2)S(=O)(=O)c2ccccc2)c1,-0.242
5,CCC(C)c1ccc(NC(=S)Nc2ccc(OC)c(OC)c2)cc1 (stereo not given),active: 5.09
6,COc1cccc(/C=N/NC(=O)c2ccccc2)c1OS(=O)(=O)c1ccccc1,-0.323
7,COc1ccc(N2CCN(Cc3nnc(-c4ccccc4)o3)CC2)cc1,-0.12
8,Cc1ccccc1Cn1nc(C)c(NC(=O)c2cc(-c3cccs3)on2)c1C,-0.614
9,CC(C)Oc1ccc(Br)cc1/C=N\NC(N)=S,0.548
10,CC(C)CC(=O)NC(=S)Nc1nc(-c2ccc(Cl)cc2)cs1,0.0823
11,CCn1c(COc2ccc(C)cc2)nnc1SCc1ccc(C#N)cc1,-0.0466
12,COc1ccc(-c2ccnc(SCC(=O)N3CCOCC3)n2)cc1,0.325
13,Cc1cc2cc(CNC(=O)NC3CCCCC3)ccc2n1C,0.959
14,CC1CCN(c2nc3c(c(=O)n(C)c(=O)n3C)n2CCSc2nc3ccccc3s2)CC1,-0.725
15,COC(=O)c1cccc(COC(=O)c2ccccc2NC(=O)c2ccco2)c1,0.262
16,CCOc1cc(C(=O)N2CCN=C2SC)cc(OCC)c1OCC,0.00226
17,Cc1ccc(C(=O)N/C(=C\c2ccc(-c3ccc(Br)cc3)o2)C(=O)NC2CCS(=O)(=O)C2)cc1 (stereo not given),-0.13
18,O=C(Oc1cccc2c(O)cccc12)c1ccccc1,-0.446
19,O=S(=O)(c1ccc2ccccc2c1)N1CCCCC1,0.0683
20,CCCN(CCC)S(=O)(=O)c1ccc(C(=O)Nc2nc3c(s2)CCc2ccccc2-3)cc1,-0.276
21,CCCCc1nc(S(=O)(=O)c2ccc(Cl)cc2)c(N2CCOCC2)o1,-0.44
22,COc1cccc(-c2nnc(-c3ccc(C(F)(F)F)cc3)o2)c1,-0.245

row,SMILES,z-score
1,CN(C1CCCCC1)S(=O)(=O)c1ccc2c(c1)c(=O)c(C(=O)NCCN1CCCC1)cn2C,0.253
2,COc1ccccc1-n1cnc2cc(NS(=O)(=O)c3ccc(Br)cc3)ccc21,-0.513
3,O=C(CCc1nc2ccccc2c(=O)[nH]1)OCc1ccccc1F,-0.226
4,Cc1ccc2cc3c(N)[nH]nc3nc2c1,-0.203
5,COC(=O)c1sccc1-n1cccc1C(=O)NCc1ccccc1,-0.494
6,Cc1ccc(NC(=O)COC(=O)c2ccccc2-c2nc3ccccc3s2)c(C)c1,-0.289
7,COC(=O)c1nnn(Cc2ccccc2)c1N,0.645
8,CSc1ncc(Cl)c(C(=O)Nc2sc3c(c2C(=O)NCc2ccco2)CCCC3)n1,-1.07
9,O=C(CO/N=C/c1ccccc1)N1c2ccccc2Oc2ccccc21,-0.069
10,O=C(COC(=O)COc1ccccc1)Nc1ccc(OC(F)(F)F)cc1,-1.71
11,c1ccc(OCCCc2nc(-c3cccnc3)no2)cc1,0.16
12,CCC(=O)N(C)C(c1ccccc1Cl)c1nnnn1-c1c(C)cccc1C (stereo not given),-0.215
13,CC(NC(=O)COC(=O)c1ccc([N+](=O)[O-])s1)c1ccccc1 (stereo not given),0.0733
14,COc1ccc(/C=N/NC(=O)c2cc(C34CC5CC(CC(C5)C3)C4)[nH]n2)cc1OC,-0.412
15,CN1/C(=C\C(=S)NC(=O)c2ccccc2Cl)C(C)(C)c2ccccc21,0.0507
16,Cc1nc(SCc2ccc([N+](=O)[O-])cc2)nc2ccccc12,-0.151
17,Cn1nc(-c2ccccc2)c(C(O)c2ccc(Cl)cc2)c1Cl (stereo not given),-0.238
18,COC(=O)C1=C(C)N=C2SC(C)C(=O)N2C1/C=C/c1ccccc1OC (stereo not given),-0.131
19,O=C(C1CCCO1)N1CCN(Cc2nc3ccccc3c(=O)[nH]2)CC1 (stereo not given),0.339
20,O=C(CS(=O)(=O)c1c[nH]c2ccccc12)NC1CCCCC1,0.311
21,COc1cccc(C2(c3cccc(OC)c3)CC2C(=O)Nc2cccc3ccccc23)c1 (stereo not given),-0.0171
22,CC(C)(O)C#CC#CCN1CCOCC1,0.277

row,SMILES,z-score
1,CC(C)C(NC(=O)C12CC3CC(CC(C3)C1)C2)C(=O)N/N=C/C1=C(N2CCOCC2)C(=C\c2ccc([N+](=O)[O-])cc2)/CC1 (stereo not given),-0.21
2,CCCC(O)(CCN1CCOCC1)c1ccc(Br)cc1 (stereo not given),-0.00424
3,COc1ccc(OC)c(-c2nnc(SCC(=O)N3CCOCC3)o2)c1,-0.89
4,COc1ccccc1-n1nnnc1SCC(=O)Nc1cc(C)on1,-0.38
5,CCCCCCCc1nc2c(=O)[nH]c3ccccc3c2o1,0.184
6,Cc1cc(NC(=O)c2ccco2)ccc1-n1cnnn1,0.0211
7,CCCc1cc(=O)[nH]c(SCc2nc3ccccc3s2)n1,-0.78
8,COC(=O)[C@@H](NC(=O)Nc1cc(Cl)ccc1C)C(C)C,0.422
9,Cc1ccc2c(c1)c1c3n2CCCN(Cc2ccccc2)C3CCC1 (stereo not given),-0.366
10,Cc1ccc(-n2ccc(=O)c(C(=O)O)n2)cc1,-0.105
11,CC(Sc1nc2ccccc2[nH]1)C(=O)Nc1ccc2c(c1)OCCO2 (stereo not given),-0.436
12,COc1cc2c(cc1OC)C(COc1ccc3c(C)cc(=O)oc3c1)N(C(=O)c1ccco1)CC2 (stereo not given),0.044
13,CNCC(O)COc1ccccc1 (stereo not given),0.394
14,O=C(Nc1ccccc1Cl)N1CCN(c2ccccn2)CC1,-0.555
15,C=CCOc1c2ccc(C(=O)NCc3ccc(OC)cc3)cc2nn1C,-0.117
16,CCOc1cc(/C=N/NC(=O)Cc2ccc(C(F)(F)F)cc2[N+](=O)[O-])ccc1O,-0.332
17,Cc1ccc(NC(=S)NCCc2ccccc2)c(C)c1,0.0618
18,Cc1ccc(Sc2ncnc(N)c2[N+](=O)[O-])cc1,0.206
19,COc1ccc(CCNC(=O)N2CCOCC2)cc1,-0.0601
20,COc1ccc(N2CCC(CNC(=S)Nc3cccc(C)c3)C2)cc1 (stereo not given),-0.0754
21,Cc1cc(OCC(=O)Nc2cc(-c3nn4c(C)nnc4s3)ccc2C)ccc1Cl,-0.447
22,Cc1ccc(-c2nnc(NCc3nc4ccccc4[nH]3)c3ccccc23)cc1S(=O)(=O)N1CCOCC1,-0.308
